# Substitutions are numbered along the chain they refer to. Names and notes keep the numbering of the source.
# B1: Ab-38: 2A1-HC: R17G, T24A, C107A; heavy chain SEQ ID NO:309, light chain SEQ ID NO:312 (antibody)
# heavy: EVQLVESGGGLVKPGGSLRLSCAASGFTFGDYALSWFRQAPGKGLEWVGVSRSKAYGGTTDYAASVKGRFTISRDDSKSFAYLQMNSLKTEDTAVYYCASSGYSSGWTPFDYWGQGTLVTVSS[omitted - human IgG1 constant region]
# light: QSVLTQPPSASGTPGQRVTISCSGSSSNIGSNTVNWYQQLPGTAPKLLIFNYHQRPSGVPDRFSGSKSGSSASLAISGLQSEDEADYYCAAWDDSLNGWVFGGGTKLTVLGQPKAAPSVTLFPPSSEELQANKATLVCLISDFYPGAVTVAWKADSSPVKAGVETTTPSKQSNNKYAASSYLSLTPEQWKSHRSYSCQVTHEGSTVEKTVAPTECS
# B2: Ab-19: 2A1 mutein C107T, heavy chain SEQ ID NO:289, light chain SEQ ID NO:288 (antibody)
# heavy: B1 heavy with G16R, A23T, A99T
# light: B1 light with K106E
# B3: Ab-23: 2A1 mutein, heavy chain SEQ ID NO:293, light chain SEQ ID NO:288 (antibody)
# heavy: B1 heavy with G16R, A23T, F80T, A99T
# light: B1 light with K106E
# B4: Ab-28: 2A1 mutein, heavy chain SEQ ID NO:298, light chain SEQ ID NO:288 (antibody)
# heavy: B1 heavy with G16R, F80T, A99T
# light: B1 light with K106E
# B5: Ab-25: 2A1 mutein, heavy chain SEQ ID NO:295, light chain SEQ ID NO:288 (antibody)
# heavy: B1 heavy with G16R, A23T, A99T, S100K
# light: B1 light with K106E
# B6: Ab-22: 2A1 mutein, heavy chain SEQ ID NO:292, light chain SEQ ID NO:288 (antibody)
# heavy: B1 heavy with G16R, A23T, D76N, A99T
# light: B1 light with K106E
# B7: Ab-31: 2A1 mutein, heavy chain SEQ ID NO:301, light chain SEQ ID NO:288 (antibody)
# heavy: B1 heavy with G16R, A23T, F37V, F80T
# light: B1 light with K106E
# B8: Ab-32: 2A1 mutein, heavy chain SEQ ID NO:302, light chain SEQ ID NO:288 (antibody)
# heavy: B1 heavy with G16R, F37V, F80T
# light: B1 light with K106E
# B9: Ab-24: 2A1 mutein, heavy chain SEQ ID NO:294, light chain SEQ ID NO:288 (antibody)
# heavy: B1 heavy with G16R, A23T
# light: B1 light with K106E
# B10: Ab-26: 2A1 mutein, heavy chain SEQ ID NO:296, light chain SEQ ID NO:288 (antibody)
# heavy: B1 heavy with G16R, A23T, F37V, F80T, A99T
# light: B1 light with K106E
# B11: 2A1 S108R: 2A1 mutein S108R (antibody)
# heavy: B1 heavy with G16R, A23T, A99C, S100R
# light: B1 light with K106E
# B12: Ab-27: 2A1 mutein, heavy chain SEQ ID NO:297, light chain SEQ ID NO:288 (antibody)
# heavy: B1 heavy with G16R, A23T, F37V
# light: B1 light with K106E
# B13: Ab-21: 2A1 mutein, heavy chain SEQ ID NO:291, light chain SEQ ID NO:288 (antibody)
# heavy: B1 heavy with G16R, A23T, F37V, A99T
# light: B1 light with K106E
# Tested on: CD138+ plasma cell fraction of multiple myeloma patient samples
# Assay: pHrodo flow cytometry internalization in multiple myeloma patient samples
# Assay type: cell-based, human
# Settings: pHrodo labeled antibody, 4 hours
# Procedure: Samples were acquired from commercial sources (AllCells, Conversant, Proteogenex) to acquire approximately 1×10^6 plasma cells per sample. Individual multiple myeloma (MM) samples were thawed gently at room temp (RT). The thawed cells were added dropwise into 4 ml of 50% FBS (fetal bovine serum) RPMI buffer at RT. 3 ml of 10% FBS RPMI was added to the cell suspension. The cell suspension was gently inverted to mix and centrifuged at low speed to pellet cells. The media was aspirated and the cell pellet was resuspended in 1% FBS PBS (Phosphate Buffered Saline). The cells were manually counted on a hemocytometer. The cells were added to 10 FBS RPMI and allowed to recover in an incubator for 1 hr at 37° C. with 5% CO2. Cell viability was assessed as follows. Cells from primary MM and H929 cell lines were plated at 200,000 cells per well in a 96 well plate with fresh 10% FBS RPMI buffer with 5 wells per sample. The plate was centrifuged to pellet cells and media aspirated and resuspended in PBS three times. Cells were stained with Violet Live/Dead cell stain (Molecular Probes—L34955) per manufacturer protocol and incubated at RT in the dark for 30 minutes. […] Internalization/Immunophenotype (IP) was assessed as follows. […] Cells from each well were assessed using a LSRII (BD Bioscience) and FCS files generated. […]
row,Molecule,internalization in multiple myeloma patient samples
1,B1,effectively internalized in all 29 multiple myeloma patient samples

# Tested on: not listed separately
# Assay: Differential Scanning Calorimetry (DSC) thermostability
# Assay type: physicochemical
# Settings: not given
# Text: Differential Scanning calorimetry (DSC) was used to compare the thermostability of parent and engineered antibodies. DSC is a thermodynamical tool for direct assessment of the heat energy uptake, which occurs in a sample within a regulated increase or decrease in temperature. DSC is commonly employed to assess the thermal and conformational stability of a protein. The melting temperature of a protein, or of individual domains, can be obtained from the DSC profile, and if the reaction is reversible the thermodynamic parameters of the unfolding can be determined. A protein is considered more thermostable when the Tm (transition temperature) is higher. When thermostability data are compared to other bioanalytical methods, like size exclusion chromatography (SEC), it has been observed that a correlation between greater thermostability (higher Tm) and decreased aggregation. Antibodies with a higher Tm and decreased aggregation formation have the potential for improved long-term stability thus potentially making better biotherapeutics.
# DSC was carried out using a MicroCal™ VP-Capillary DSC system (GE Healthcare, Piscataway, N.J.) equipped with an auto-sampler. The temperature differences between the reference and sample cells are continuously measured, and calibrated to power units. For example, the full-length antibodies shown in TABLE 10 were diluted to 0.5 mg/mL in a buffered solution. The solution reference and protein samples were measured in a 135 μL cell from 20 to 110° C. at a heating rate of 60° C./hour. The pre-scan was set at 15 minutes while the filtering period was 10 seconds. Signal from the blank buffer solution was used for baseline subtraction. The data analysis was performed using MicroCal™ Origin 7 software. Heat capacity during protein melting was calculated by normalizing over protein concentration.
Molecule,Tm1,Tm2,Tm3
B2,64.8 °C,76.1 °C,83.3 °C
B3,68.4 °C,76.2 °C,83.7 °C
B4,70.8 °C,,83.7 °C
B5,65.7 °C,76.2 °C,83.2 °C
B6,68.6 °C,,83.6 °C
B7,73.2 °C,,83.7 °C
B8,67.9 °C,76.2 °C,83.8 °C
B9,69.4 °C,,84.3 °C

# Same assay, conditions: full-length antibody
row,Molecule,Tm
1,B1,75 °C

# Molecular target: T1, BCMA on H929 cells (Homo sapiens, UniProt Q02223, N81S)
# T1 construct: host or cells: H929
# T1 sequence (Q02223 1-184 N81S): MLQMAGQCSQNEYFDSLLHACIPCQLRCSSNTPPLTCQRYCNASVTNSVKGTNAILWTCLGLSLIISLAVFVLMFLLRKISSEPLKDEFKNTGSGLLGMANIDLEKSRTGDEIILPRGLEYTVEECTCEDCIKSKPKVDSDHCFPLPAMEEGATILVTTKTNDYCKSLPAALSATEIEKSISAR
# Assay: FACS binding to native BCMA on H929 myeloma cells
# Settings: flow cytometry
# Procedure: Approximately 10 to 40×10^6 of H929 myeloma cells were resuspended in a staining solution (2% goat serum, 1% rabbit serum, 0.02% azide in PBS) and aliquoted into round-bottom, 96-well plate (Corning Incorp., Acton, Mass.) as per the experiment design. The cells were incubated at 4 degrees celsius for 30 minutes to block non-specific sites. The antibodies were titrated into the staining solution. The cells were rinsed in a rinse solution (PBS+0.02% azide) by resuspending the cells in 200 ul/well. The cells were centrifuged at 1500 rpm at 4 degrees celsius for 7 minutes. The rinse solution was removed and the rinse step was repeated. […] The cells/antibodies were rinsed as described above to remove excess/unbound antibody. After the last rinse, the cells were resuspended in 200 ul of rinse solution with a drop of staining solution added to keep the cells from aggregating.
# The antibodies were tested for binding to BCMA endogenously-expressed on a variety of cells, including the H929 cell line, which were developed from B-lymphocytes from a myeloma/plasmacytoma patient (ATCC, Manassa, Va.) using standard FACs techniques. Reagents were prepared using standard methods: 500 mL FACs buffer (PBS, 1% BSA, 5 mM EDTA, 0.02% NaN3), and FACs Block Buffer (30 mL FACs buffer, 5% Normal Rabbit Serum, 5% Normal Human Serum). […] The cell volumes were adjusted to bring all volumes up to 1 mL/tube w/ FACs buffer. The cells were centrifuged at 4° C. for 10 minutes at 1200 rpm. The supernatants were removed and the cell pellets were resuspended in 100 uL of FACs Block Buffer per tube. The cells were incubated for 30 to 60 minutes on ice. The BCMA antibodies were prepared by making premixes of 1:3 serial dilutions of antibodies in FACS Block Buffer starting at 10 ug/ml antibody (for example) in a final volume of 100 ul. The blocked cells were centrifuged at 4° C. for 10 minutes at 1200 rpm. The supernatants were removed and the cell pellets were resuspended in 100 uL of FACs Block Buffer containing the BCMA antibodies. The cells were incubated for 60 minutes on ice. After incubation, 1 mL of cold FACs Block Buffer was added to each tube. The cells were centrifuged at 4° C. for 10 minutes at 1200 rpm. […] After incubation, 1 mL of cold FACs Block Buffer was added to each tube. The cells were centrifuged at 4° C. for 10 minutes at 1200 rpm. […] After incubation, 1 mL of cold FACs Block Buffer was added to each tube. The cells were centrifuged at 4° C. for 10 minutes at 1200 rpm. The supernatants were removed and the cell pellets were resuspended in 0.2 mL/tube 4% paraformaldehyde in PBS and analyzed by flow cytometry
row,Molecule,binding to BCMA on H929 cells relative to parental 2A1
1,B2,comparable binding
2,B10,reduced binding
3,B11,comparable binding
4,B12,reduced binding
5,B13,reduced binding

# Tested on: not listed separately
# Assay: pI (Whole) of antibodies
# Assay type: physicochemical
# Settings: method not stated
row,Molecule,pI (Whole)
1,B1,8.39

# — patent US10220090B2, “BCMA Antigen binding proteins” (Amgen Inc., priority 2012, dated 2019)
